Results: PubChem BioAssay AID2101 (National Center for Advancing Translational Sciences (NCATS), 2009)
Hit rate of the full screen: of about 330,000 compounds, about 300 (0.091%) were called active. The inconclusive results got no clear call from the source; some entries with a clear call stand among them for comparison. Calls follow the shape of the dose curve; as a rule, active = well fitted inhibition curve with a large enough effect; inconclusive = small, poorly fitted or top-dose-only effect, or effect the other way, or another doubt; inactive = no such curve, though single readings can be large or run the other way. No potency is given beside an inconclusive call; the fits are too rough.

What follows are compounds tested against Lysosomal acid glucosylceramidase (Homo sapiens) (UniProt P04062) (assay: qHTS Assay for Inhibitors and Activators of N370S glucocerebrosidase as a Potential Chaperone Treatment of Gaucher Disease). Settings: N370S GC spleen homogenate, 4MU-glucoside fluorescence; activity change, negative = inhibition: at 59.4 µM (top of the series) unless noted.
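For activity change, negative = inhibition in this document: 0% = full enzyme activity and -100% = no enzyme basal.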
Potency is read from the fitted curve at half-maximal effect.

Compound	activity change, negative = inhibition	Potency
COc1ccc(-c2nc3c(c4c2C[C@H](c2ccccc2)OC4)CN(S(=O)(=O)c2ccc(Cl)c4nonc24)CC3)c(C)c1	inactive: -11.5% [at 12.8 µM]	–
CCOc1ccccc1N(C(=O)c1snc(C(N)=O)c1N)C(C(=O)NCCC(C)C)c1ccco1 (stereo not drawn)	inconclusive: 31.4% [activator]	–
COc1ccc(CNc2nc3c(c(=O)n(Cc4ccc(Br)cc4)c(=O)n3C)n2C)cc1	inconclusive: 32.1% [activator]	–
CC(=O)N1c2ccc3ccccc3c2C(C)CC12CCCCC2 (stereo not drawn)	inactive: 8.97%	–
COc1ccc(Nc2cc(C)c3c(O)cccc3n2)cc1	inactive: -17.9%	–
CCOC(=O)c1sc(NC(=O)C(C)(C)C)cc1C	inactive: 0.171%	–
COC(=O)C(C)Oc1cc(OC(C)C(=O)OC)c2c(C)c(Cl)c(=O)oc2c1 (stereo not drawn)	–	inconclusive [activator, single point]
CCN(CC(=O)Nc1sc2c(c1C#N)CCCC2)Cc1nc2ccccc2c(=O)[nH]1	–	inconclusive [activator, partial curve]
Cc1ccccc1S(=O)(=O)Nc1nc2ccccc2nc1Cl	inconclusive: 34% [activator]	–
NC(C(=O)O)c1ccc(P(=O)(O)O)cc1 (stereo not drawn)	inactive: 0.239%	–
COc1ccccc1-n1c(N)c(C(=O)NCC2CCCO2)c2nc3ccccc3nc21 (stereo not drawn)	–	inconclusive [activator, single point]
CCC(CC)C(=O)N1N=C(c2ccc(NS(C)(=O)=O)cc2)CC1c1ccccc1 (stereo not drawn)	–	inconclusive [activator, single point]
CC(CCc1ccc(O)cc1)NC1c2ccccc2-c2ccccc21 (stereo not drawn)	–	inconclusive [inhibitor, full curve]
O=C(NCc1c(Cl)cccc1Oc1ccccc1)c1ccccc1	–	inconclusive [activator, single point]
COc1ccccc1[C@@H]1C(c2cccc(Cl)c2)=NN(c2ccc(Br)cc2)[C@H]1C(=O)N1CCOC1=O	–	inconclusive [activator, single point]
Cc1ccc(C)c(N2CCN(C(=S)Nc3ccc4nc(N5CCOCC5)cc(C)c4c3)CC2)c1	–	inconclusive [inhibitor, partial curve]
CC1=CC2C(C)(C)CC(=O)C[C@]2(C)CC1COc1ccc2c(c1)CC(=O)C=C2 (stereo partly drawn)	–	inconclusive [activator, single point]
Cc1nc(SCC(=O)Nc2cc(C(N)=O)cc(C(N)=O)c2)c2c(C)c(C)sc2n1	inactive: -6.47%	–
Cc1ccc(C2Nc3ccc4ccccc4c3C3=C2C(=O)CC(C)(C)C3)o1 (stereo not drawn)	inconclusive: 42.7% [activator]	–
O=C(N=Nc1c(O)[nH]c2ccc(Br)cc12)c1ccccc1-n1cccc1	inactive: 14.9%	–
O=C1CCC=C1[C@@H](O)CCc1ccccc1	inactive: -0.155% [at 12.8 µM]	–
Nc1nc2c(C(=O)N3CCOCC3)nnn2c2ccccc12	inactive: -22.5%	–

Compound	activity change, negative = inhibition	Potency
CCOc1ccc(NC(=O)c2cccc(OC(=S)N3CCC(C)CC3)c2)cc1	–	inconclusive [activator, partial curve]
Cc1cc(C)c2sc(NNC(=O)C3COc4ccccc4O3)nc2c1 (stereo not drawn)	–	inconclusive [activator, full curve]
CC(=O)c1sc(NC(=O)c2ccccc2C)nc1C	inactive: -8.64%	–
CC(=O)N=c1c(C#N)cc2c(=O)n3ccccc3nc2n1CCCOC(C)C	–	inconclusive [activator, partial curve]
COc1ccc(OC)c(C(=O)COC(=O)c2cc(C)oc2C)c1	–	inconclusive [activator, partial curve]
Cc1nn2c(SCC(=O)c3cccs3)cc(C(C)(C)C)nc2c1-c1ccccc1	–	inconclusive [activator, single point]
O=C(NCC(c1cccs1)N1CCOCC1)c1ccccc1NS(=O)(=O)c1ccc(Cl)c([N+](=O)[O-])c1 (stereo not drawn)	–	inconclusive [inhibitor, partial curve]
O=C(CSc1nc2ccccc2[nH]1)Nc1nc(-c2cccc(Br)c2)cs1	–	inconclusive [activator, partial curve]
CC(=O)N1CCCc2cc(S(=O)(=O)N3CCCC(C(=O)N4CCN(c5ccccc5)CC4)C3)ccc21 (stereo not drawn)	–	inconclusive [inhibitor, single point]
CCCCN(C)CCCNC(=O)c1cc(-c2cccs2)nc2ccccc12	–	inconclusive [activator, single point]
O=C(C1=C[C@@H](c2ccc(C(F)(F)F)cc2)C[C@@H](OCCCCO)O1)N1CCN(Cc2ccc3c(c2)OCO3)CC1	–	inconclusive [inhibitor, partial curve]
Cc1cc(-c2nc3cccnc3s2)ccc1NS(=O)(=O)c1cccs1	–	inconclusive [activator, single point]
N#Cc1c(-c2ccccc2)nc(SCC(=O)Nc2ccccc2)[nH]c1=O	–	inconclusive [activator, partial curve]
CCN=c1scc(C)n1/N=C/c1ccc(O)c(O)c1O	inactive: -22.4%	–
CC(=O)OCCn1c2nc(=O)[nH]c(=O)c-2nc2cc(C)c(C)cc21	–	inconclusive [inhibitor, single point]
COC(c1ccccc1)C(C)C(OC)C(C)C(OC)C(C)C(C)=O (stereo not drawn)	inactive: -8.79% [at 12.8 µM]	–
Cc1ccsc1C=Nc1ccc(O)cc1	–	inconclusive [inhibitor, partial curve, poor fit]
c1ccc(C(c2ccccc2)N2CC[C@@]3(CCCNC3)C2)cc1	inactive: -6.63%	–
COc1cc(/C=C(\C#N)c2nc3ccccc3[nH]2)ccc1Oc1ccc([N+](=O)[O-])cn1	–	inconclusive [inhibitor, single point]
Cc1ccccc1N/C(=C(/C(Cl)=C(Cl)Cl)[N+](=O)[O-])n1nnc2ccccc21	inactive: -4.71%	–
C[N+](C)(C)CC(=O)N1CCN(c2ccc3ccccc3n2)CC1	–	inconclusive [activator, single point]
